Reference: US11845782B2, “Relaxin fusion polypeptides and uses thereof” (MedImmune Limited, priority 2017, dated 2023)

What was measured:
[1] = test system: isoproterenol-induced cardiac hypertrophy; assay: Isoproterenol-induced cardiac hypertrophy and fibrosis in mice (Example 8); assay type: in vivo, C57BL/6J male mice; settings: given concomitantly with isoproterenol 15 mg/kg/day, 2 weeks
Method: A total of 6 study groups with n=8 mice (C57BL/6J male mice) per group were performed. The groups were: vehicle, Fc_hRLX2_15-15AA, isoproterenol, isoproterenol+enalapril, isoproterenol+recombinant human relaxin 2, and isoproterenol+Fc_hRLX2_15-15AA. Drugs and vehicle were delivered by Alzet minipumps (model 1002; rate: 0.25 μl/hr (±0.05), 6 μl one day @37° C.) or subcutaneous injection for Fc_hRLX2_15-15AA.
Isoproterenol was made as follows: A 500 mM solution (123.9 mg/ml) freshly in 0.0002% Na-Asc saline, […] filtered). The final [Iso] concentration in minipump: 15 mg/kg/day=15 mg/247.72/6 μl/1000 g=10.1 mM per gram of body weight (BVV). Vehicle was 0.0002% Na-ascorbate, Sigma catalog #A7631.
Enalapril was made as follows: Enalapril is used as maleate salt, MW of 492.52, Sigma catalog #E6888. A 200 mM stock solution (98.5 mg/ml) freshly in methanol, […] filtered. The final concentration in minipump: 2.5 mg/kg/day=2.5 mg/492.52/6 μl/1000 g=0.846 mM per gram of body weight (BVV), i.e., one minipump for 30 gram of mouse will need 19.0 μl of 200 mM Ena (150 μl×0.846/200 mM×30 g BW). […]
At the end of the study, body weight, heart weight, lung weight, and tibia length were measured. […]
Fibrosis was measured based on the detection of hydroxyproline (Total collagen assay, QuickZyme Biosciences). […]

[2] = Mouse PK profile, FcRn transgenic mouse, Fc capture and Relaxin detection ELISA (Example 6); assay type: in vivo
[3] = Rat PK profile, Fc capture and Relaxin detection ELISA (Example 5); assay type: in vivo, Wistar rats; settings: 4 mg/kg, non-compartmental analysis
Method: The pharmacokinetic (PK) profiles of some Relaxin 2 fusion polypeptides of the invention were determined using a Relaxin ELISA assay. The rat in vivo PK profiles were determined for the following fusion polypeptides: Fc_hRLX2_4-15AA and Fc_hRLX2_15-15AA.
SureBlue™ TMB Substrate (KPL, 52-00-01. Ready-to-use SureBlue™ TMB Microwell Peroxidase Substrate) and TMB Stop Solution (KPL, 50-85-05) were used to develop the assays. Fc_hRLX2_4-15AA and Fc_hRLX2_15-15AA fusion polypeptides were administered to 8-week-old Wistar rats (Charles River) by the intravenous (IV) or subcutaneous (SC) route at 4 mg/kg. Blood samples were collected at 5 minutes, 30 minutes, 3 hours, 8 hours, 1 day, 2 days, 3 days, 4 days, 7 days, 9 days, 14 days and 21 days post drug administration for the IV route, and at 8 hours, 1 day, 2 days, 3 days, 4 days, 7 days, 9 days, 14 days and 21 days post drug administration for the SC route. Samples were collected into a tube containing EDTA and placed on ice immediately. Samples were centrifuged for 15 minutes at 1000×g within 30 minutes of collection. Aliquoted samples were stored at −20° C. and later tested by ELISA. The half-life was assessed using an Fc capture and Relaxin detection ELISA assay (using the polyclonal antibody from R&D Systems Relaxin detection ELISA kit, Catalogue number DRL200).

Row | Molecule | isoproterenol-induced increase in cardiac hypertrophy (HW/TL) [1] | isoproterenol-induced increase in fibrosis (collagen content) [1] | mean terminal half-life, SC dose group greater than IV dose group ([2]; 6 mg/kg, SC vs IV) | dose-normalized Cmax ([2]; SC, 1, 6 or 30 mg/kg) | time to peak serum concentration ([2]; SC, 1, 6 or 30 mg/kg) [h] | mean terminal half-life ([3]; IV) [days] | mean terminal half-life ([3]; SC) [days]
1 | Fc_hRLX2_15-15AA: Native human IgG1 Fc / 15AA connector / Relaxin 2 A chain / 15AA linker / B chain variant; SEQ ID NO. 16 (protein, fusion protein, Native human IgG1 Fc / 15AA connector / Relaxin 2 A chain / 15AA linker / B chain variant; 16) [no letters for human IgG1 Fc]GGGGSGGGGSGGGGSQLYSALANKCCHVGCTKRSLARFCGGGGSGGGGSGGGGSSWMEEVIKLCGRELVRAQIAICGMSTWS | significantly attenuated | significantly attenuated | approximately 26.5% | decreased with an increase in dose | 24 to 72 | 3.59 | 3.75
2 | Fc_hRLX2_4-15AA: Native human IgG1 Fc / 4AA connector GGSP / Relaxin 2 A chain / 15AA linker / B chain variant; SEQ ID NO. 2 (protein, fusion protein) [no letters for human IgG1 Fc]GGSPQLYSALANKCCHVGCTKRSLARFCGGGGSGGGGSGGGGSSWMEEVIKLCGRELVRAQIAICGMSTWS | – | – | – | – | – | 2.46 | 3.21
